Source: US20250057968A1, “ANTI-DLL3 ANTIBODY AND PHARMACEUTICAL USE THEREOF, AND ANTIBODY-DRUG CONJUGATE CONTAINING ANTI-DLL3 ANTIBODY” (Jiangsu Hengrui Pharmaceuticals Co., Ltd., priority 2021, published 2025)
Entries after “also recorded” stand apart in the source; their conditions may differ.

T1: RatDLL3/CHO-s (Rattus norvegicus, UniProt O88671)
T1 construct: Rat DLL3 full-length protein; expressed in transfected cells; host or cells: CHO-s (Invitrogen, R80007), lentiviral transduction
T1 sequence (O88671 33-589): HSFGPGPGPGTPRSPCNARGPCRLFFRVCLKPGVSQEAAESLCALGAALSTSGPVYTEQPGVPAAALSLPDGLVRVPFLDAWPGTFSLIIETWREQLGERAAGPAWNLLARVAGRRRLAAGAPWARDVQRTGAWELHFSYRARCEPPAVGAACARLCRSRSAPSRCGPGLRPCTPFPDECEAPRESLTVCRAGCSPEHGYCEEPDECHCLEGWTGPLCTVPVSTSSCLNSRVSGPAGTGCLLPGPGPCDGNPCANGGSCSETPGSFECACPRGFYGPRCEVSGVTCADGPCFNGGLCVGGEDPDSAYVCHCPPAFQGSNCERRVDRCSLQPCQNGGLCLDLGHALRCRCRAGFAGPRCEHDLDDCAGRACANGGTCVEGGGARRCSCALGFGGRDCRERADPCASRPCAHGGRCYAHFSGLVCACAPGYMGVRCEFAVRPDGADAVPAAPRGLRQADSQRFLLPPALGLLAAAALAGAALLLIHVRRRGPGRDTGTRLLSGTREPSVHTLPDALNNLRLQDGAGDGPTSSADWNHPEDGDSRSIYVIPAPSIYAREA

B1: Hu6: humanized anti-DLL3 antibody, heavy chain SEQ ID NO: 58, light chain SEQ ID NO: 59 (hAb6VH12 + hAb6VL4) (antibody)
heavy: EVQLVQSGSELKKPGASVKVSCKASGYTFTDYYMNWVRQAPGQGLEWMGIINPYSGVTIYNHKFKGRFALSVDKSSNTAYLQISSLKAEDTAVYYCARQDSLLDYAMDYWGQGTTVTVSS[human IgG1 constant region not written out]
light: DIQMTQSPSSLSASVGDRVTITCHASQGISGNMGWLQQKPGKAPKGLIYHGANLEDGVPSRFSGSGSGADYTLTISSLQPEDFADYYCVQYAQFPYTFGGGTKVEIKRTVAAPSVFIFPPSDEQLKSGTASVVCLLNNFYPREAKVQWKVDNALQSGNSQESVTEQDSKDSTYSLSSTLTLSKADYEKHKVYACEVTHQGLSSPVTKSFNRGEC
modifications: Hu6
B2: Hu100: humanized anti-DLL3 antibody, heavy chain SEQ ID NO: 60, light chain SEQ ID NO: 61 (hAb100VH1 + hAb100VL1) (antibody)
heavy: EVQLVESGGGLVKPGGSLRLSCAASGFTFSDSGMHWIRQAPGKGLEWVSYISSGSSTIHYADTVKGRFTISRDNAKNSLYLQMNSLRAEDTAVYYCASPLYYYGRSYNAVAYWGQGTTVTVSS[human IgG1 constant region not written out]
light: DIQMTQSPSSLSASVGDRVTITCHASQNINVWLSWYQQKPGKVPKLLIYKASDLHTGVPSRFSGSGSGTDFTLTISSLQPEDVATYYCQQGQSYPLTFGGGTKVEIKRTVAAPSVFIFPPSDEQLKSGTASVVCLLNNFYPREAKVQWKVDNALQSGNSQESVTEQDSKDSTYSLSSTLTLSKADYEKHKVYACEVTHQGLSSPVTKSFNRGEC
modifications: Hu100

How the values were obtained:
cynomolgus monkey DLL3 = experiment: Biacore antibody affinity assay, cynomolgus monkey DLL3; assay type: binding
From the text: Test antibodies were affinity-captured with a Protein A biosensor chip (Cat. #29127556, Cytiva) for 18 seconds, and then the antigens human DLL3 (ACRO, DLL3-H52H4), cynomolgus monkey DLL3 (KACTUS, DLL-RM103), and mouse DLL3 (KACTUS, DLL-MM103) were allowed to flow over the surface of the chip for 180 seconds, followed by 600 seconds of dissociation. Reaction signals were detected in real time using a Biacore 8K (Cytiva) instrument to obtain association and dissociation curves. After the dissociation in each experimental cycle, the biosensor chip was washed and regenerated with a 10 mM glycine-hydrochloric acid solution (pH 1.5) (Cat. #BR-1003-54, Cytiva). A 1:1 model was fit to the data. The results are shown in Table 12-1, Table 12-2, and Table 12-3.

human DLL4/CHO-s cells = target: T2, human DLL4/CHO-s cells (Homo sapiens, UniProt Q9NR61); experiment: DLL4 binding assay (FACS)
T2 construct: Human DLL4 full-length protein; expressed in transfected cells; host or cells: CHO-s (Invitrogen, R80007)
Method: Stably transfected human DLL1/CHO-s and human DLL4/CHO-s cells were suspended at 1×10^6/mL in FACS buffer (containing 1% BSA and pH 7.4 PBS), and the cell suspensions were added to a 96-well round-bottom plate (Corning, 3795) at 100 µL/well. The plate was centrifuged at 300 g for 5 min, and the supernatant was removed. Test antibodies were added at 100 μL/well, and the plate was incubated in the dark in a refrigerator at 4° C. for 1 h. After 3 washes by centrifugation at 300 g, working concentrations of PE F(ab′)2-goat anti-human IgG Fc secondary antibody (invitrogen, H10104) were added. The plate was incubated in the dark in a refrigerator at 4° C. for 40 min. After 3 washes by centrifugation at 300 g, the geometric mean fluorescence intensity was measured on an Invitrogen flow cytometer.

RatDLL3/CHO-s = target: T1, RatDLL3/CHO-s; experiment: Cell-level FACS binding assay, RatDLL3/CHO-s cells
Method: Cells of the DLL3-expressing small cell lung cancer cell lines H1184 (ATCC, Cat. No. CRL-5858), DLL3/H82, cynoDLL3/CHO-s, and RatDLL3/CHO-s were suspended at 1×10^6/mL in FACS buffer (1% BSA+pH 7.4 PBS), and the cell suspensions were added to a 96-well round-bottom plate (Corning, 3795) at 100 μL/well. The plate was centrifuged at 300 g for 5 min, and the supernatant was removed. Different concentrations of test antibodies were added at 100 μL/well. The plate was incubated in the dark in a refrigerator at 4° C. for 1 h. After 3 washes by centrifugation at 300 g, working concentrations of APC anti-human IgG Fc (BioLegend, 410712) or PE F(ab′)2-goat anti-human IgG (invitrogen, H10104) were added. The plate was incubated in the dark in a refrigerator at 4° C. for 40 min. After 3 washes by centrifugation at 300 g, the geometric mean fluorescence intensity was measured on an Invitrogen flow cytometer, and the EC50 values of the antibodies in binding to DLL3-expressing cells were calculated. The results are shown in Table 11-1, Table 11-2, Table 11-3, and FIG. 1A to FIG. 1C.

[1] = target: T3, Biotinylated DLL3 antigen (SEQ ID NO: 9, hDLL3(ECD)-strep twin) (Homo sapiens, UniProt Q9NYJ7); experiment: Protein-level ELISA binding assay; conditions: reading at 450 nm
T3 construct: made in house; host or cells: 293E cells (pTT5 vector)
Method: Streptavidin (abcam, ab136200, 1 μg/mL) was plated at 100 μL/well, and the plate was incubated overnight at 4° C. The plate was washed 3 times with 250 μL of PBST solution (PBS containing 0.1% Tween 20) per well. The plate was blocked with 250 μL of 5% milk per well at 37° C. for 2 h. The plate was washed 3 times with 250 μL of PBST solution per well. Biotinylated DLL3 antigen (1 μg/mL) (SEQ ID NO: 9) was added, and the plate was incubated at 37° C. for 1 h. The plate was washed 3 times with 250 μL of PBST solution per well. […] The plate was washed 6 times with 250 μL of PBST solution per well. […] The plate was washed 6 times with 250 μL of PBST solution per well. TMB (KPL, 5120-0077) substrate solution was added at 100 μL/well, and color development was allowed at room temperature for 5-10 min. 1 M H2SO4 was added at 100 μL/well to stop the color development, and microplate reader (Molecular Devices, VERSA max) readings at 450 nm were taken.

DMS53/DLL3 cells = experiment: Assay for endocytic activity of anti-DLL3 antibodies (DT3C cell killing); assay type: cell-based, human

T3 sequence (Q9NYJ7 with tags, fused parts or gaps): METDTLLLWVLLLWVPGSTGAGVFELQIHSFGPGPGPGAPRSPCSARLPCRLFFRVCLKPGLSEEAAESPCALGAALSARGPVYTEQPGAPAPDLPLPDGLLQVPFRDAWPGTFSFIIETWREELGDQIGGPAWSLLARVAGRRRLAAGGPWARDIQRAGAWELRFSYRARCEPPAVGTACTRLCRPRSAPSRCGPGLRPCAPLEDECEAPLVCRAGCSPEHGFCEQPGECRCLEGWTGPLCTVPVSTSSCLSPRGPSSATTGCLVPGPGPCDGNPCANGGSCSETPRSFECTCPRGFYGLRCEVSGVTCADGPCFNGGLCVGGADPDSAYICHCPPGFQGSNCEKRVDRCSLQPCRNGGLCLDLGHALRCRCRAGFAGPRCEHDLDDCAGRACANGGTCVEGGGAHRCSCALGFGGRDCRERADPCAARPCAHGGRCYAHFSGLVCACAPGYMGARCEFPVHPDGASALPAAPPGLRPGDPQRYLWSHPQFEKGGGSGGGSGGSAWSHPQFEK
T2 sequence (Q9NR61 27-685): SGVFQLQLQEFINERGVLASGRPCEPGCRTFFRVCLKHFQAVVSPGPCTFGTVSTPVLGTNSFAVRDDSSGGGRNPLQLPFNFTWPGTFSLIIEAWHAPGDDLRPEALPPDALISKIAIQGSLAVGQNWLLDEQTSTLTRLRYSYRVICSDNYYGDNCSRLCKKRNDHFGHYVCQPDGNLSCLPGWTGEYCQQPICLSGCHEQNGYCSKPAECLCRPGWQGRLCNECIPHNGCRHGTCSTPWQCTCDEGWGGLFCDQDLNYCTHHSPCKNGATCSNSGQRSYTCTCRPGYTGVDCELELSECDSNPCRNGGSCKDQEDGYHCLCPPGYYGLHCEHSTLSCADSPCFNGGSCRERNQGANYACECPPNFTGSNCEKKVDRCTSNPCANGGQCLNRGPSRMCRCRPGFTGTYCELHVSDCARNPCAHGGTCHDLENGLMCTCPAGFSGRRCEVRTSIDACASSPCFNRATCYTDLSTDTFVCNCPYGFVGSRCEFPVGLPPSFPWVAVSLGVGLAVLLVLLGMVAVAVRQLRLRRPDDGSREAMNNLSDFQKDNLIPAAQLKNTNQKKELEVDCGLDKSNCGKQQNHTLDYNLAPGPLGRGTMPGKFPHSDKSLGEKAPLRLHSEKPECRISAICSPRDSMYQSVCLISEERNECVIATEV

Molecule	Kd (cynomolgus monkey DLL3) [nM]	binding to human DLL4 (human DLL4/CHO-s cells)	Emax (RatDLL3/CHO-s)	Emax (OD value) [1] [OD value]	endocytosis by cells (in words) (DMS53/DLL3 cells)	binding to cells expressing rat DLL3 (in words) (RatDLL3/CHO-s)
B1	1.31	neither antibody Hu6 nor Hu100 bound	2112	2.13	can be endocytosed by cells	
B2	1.11	neither antibody Hu6 nor Hu100 bound		2.05	can be endocytosed by cells	did not bind; also recorded: No binding
